# Results: PubChem BioAssay AID1347165 (National Center for Advancing Translational Sciences (NCATS), 2019)
# Out of some 220,000 compounds screened, about 5,700 (2.6%) were called active. This list was built around the results that the source calls inconclusive (neither active nor inactive); the mix of calls is not that of the screen. The call rests on the fitted dose curve; in most records, active means well fitted inhibition curve with a large enough effect; inconclusive means small, poorly fitted or top-dose-only effect; inactive means no such curve, though single readings can be large or run the other way. Potencies beside an inconclusive call are fits to weak or partial responses and may not hold up.
# Target: Lysine-specific demethylase 5B (Homo sapiens) (UniProt Q9UGL1)
# Sequence of UniProt Q9UGL1 (Q9UGL1 whole entry, looked up): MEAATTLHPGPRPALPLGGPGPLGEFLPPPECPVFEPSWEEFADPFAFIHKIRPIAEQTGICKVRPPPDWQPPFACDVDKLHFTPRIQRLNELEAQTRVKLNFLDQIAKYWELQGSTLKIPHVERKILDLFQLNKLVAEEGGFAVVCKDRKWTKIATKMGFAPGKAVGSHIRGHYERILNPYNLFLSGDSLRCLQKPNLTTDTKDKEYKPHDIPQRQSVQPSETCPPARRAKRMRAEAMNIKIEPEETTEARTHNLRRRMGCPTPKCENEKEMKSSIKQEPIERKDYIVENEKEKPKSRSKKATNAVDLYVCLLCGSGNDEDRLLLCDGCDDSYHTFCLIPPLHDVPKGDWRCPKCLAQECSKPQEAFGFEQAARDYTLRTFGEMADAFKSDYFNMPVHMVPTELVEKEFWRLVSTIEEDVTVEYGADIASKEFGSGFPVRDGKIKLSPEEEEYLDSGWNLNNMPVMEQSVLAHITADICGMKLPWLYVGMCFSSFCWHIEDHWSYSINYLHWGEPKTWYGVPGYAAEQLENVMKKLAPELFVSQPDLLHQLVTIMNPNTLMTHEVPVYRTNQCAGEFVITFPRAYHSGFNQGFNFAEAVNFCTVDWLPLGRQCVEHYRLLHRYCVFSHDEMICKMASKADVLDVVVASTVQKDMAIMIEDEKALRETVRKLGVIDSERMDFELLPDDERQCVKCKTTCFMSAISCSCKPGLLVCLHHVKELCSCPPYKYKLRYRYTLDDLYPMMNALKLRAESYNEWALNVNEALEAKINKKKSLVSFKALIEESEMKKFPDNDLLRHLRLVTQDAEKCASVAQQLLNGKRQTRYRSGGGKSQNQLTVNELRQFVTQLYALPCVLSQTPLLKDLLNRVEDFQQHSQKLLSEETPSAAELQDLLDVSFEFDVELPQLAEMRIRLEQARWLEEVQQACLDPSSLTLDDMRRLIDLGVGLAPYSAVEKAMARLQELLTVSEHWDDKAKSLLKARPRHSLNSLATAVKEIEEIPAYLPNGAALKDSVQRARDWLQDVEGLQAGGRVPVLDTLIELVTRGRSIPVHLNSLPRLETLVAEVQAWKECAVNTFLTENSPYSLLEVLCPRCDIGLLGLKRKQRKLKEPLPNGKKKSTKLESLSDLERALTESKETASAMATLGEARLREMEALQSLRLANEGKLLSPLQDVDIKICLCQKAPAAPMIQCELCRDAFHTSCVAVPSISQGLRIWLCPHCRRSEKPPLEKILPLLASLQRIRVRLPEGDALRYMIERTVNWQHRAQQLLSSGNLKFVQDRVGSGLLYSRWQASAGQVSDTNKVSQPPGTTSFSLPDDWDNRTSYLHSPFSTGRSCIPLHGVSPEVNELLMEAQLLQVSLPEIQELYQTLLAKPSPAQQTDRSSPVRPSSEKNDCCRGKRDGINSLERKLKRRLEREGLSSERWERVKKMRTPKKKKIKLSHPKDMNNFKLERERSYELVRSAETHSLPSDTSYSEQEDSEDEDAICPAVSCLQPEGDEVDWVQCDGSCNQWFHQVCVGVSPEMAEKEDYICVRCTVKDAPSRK
# Experiment: Primary screen for KDM5B Histone Demethylases FDH-coupled qHTS; further: nearly all actives have a fitted effect of over 70% in size; on activity change, negative = inhibition: 0% is about no effect
# Conditions: FDH-coupled NADH fluorescence (FDH is formaldehyde dehydrogenase); activity change, negative = inhibition: at 57.7 µM (top of the series) unless noted
# Summary of the method: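 Inhibition is measured as reduced NADH fluorescence generation from FDH coupling to formaldehyde release. Truncated KDM5BΔAP at 200 nM final acts on H3K4me3 peptide (12.5 µM in substrate mix) in pH 7.5 HEPES buffer with Tween-20, 30 min, room temperature.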
# Potency means the concentration at half of the fitted maximal effect; tags describe the fitted curve by direction and shape.
Structure (SMILES),Potency,"activity change, negative = inhibition"
CCOC(=O)C1=C(c2ccc(OC)cc2)OC(N)=C(C#N)C1c1cccnc1 (stereo unspecified),"inconclusive: 25.1 µM [inhibitor, single point]",
N#CCc1ccc(OCc2cccc(N)c2)cc1,,inactive: -14.7%
COc1ccc(-c2c(C)nn3c4c(cnc23)C(=O)CC(c2ccccc2)C4)cc1 (stereo unspecified),,inconclusive: -34.2% [inhibitor]
O=C1NCCCCCCN(Cc2cccc3[nH]ccc23)[C@H]2CCC[C@@H]12,"inconclusive: 28.2 µM [inhibitor, partial curve, poor fit]",
CCN1CCN(c2nc(Nc3ccc(OC)cc3)c3nccnc3n2)CC1,,inactive: 6.54%
Cc1nc2nc(N)nn2c(C)c1CCC(=O)NCCC(C)C,"inconclusive: 28.2 µM [inhibitor, partial curve, poor fit]",
CN(C)CCNC1CCCCC1,,inactive: 6.67%
CC(NC(=O)c1ccc(Nc2nc3ccccc3n3nnnc23)cc1)c1ccccc1 (stereo unspecified),"inconclusive: 7.94 µM [inhibitor, partial curve, poor fit]",
O=C(c1ccc(Cl)s1)N1CCCC2(C1)Nc1cccnc1NC2=NC1CCCC1 (stereo unspecified),active: 28.2 µM,
COc1ccccc1-c1nc(COc2ccccc2C#N)cs1,"inconclusive: 31.6 µM [inhibitor, single point]",
O=C(Nc1ccccc1F)N1CCCCCC1c1nc(-c2cccnc2)no1 (stereo unspecified),,inactive: -1.37%
CC1(c2noc(-c3ccccc3)n2)CCN(C(=O)CCC(=O)N2CC(=O)Nc3ccccc32)CC1,,inactive: -16.8%
Cc1nc2nc(SCc3ccc(F)cc3Cl)nn2c(C)c1Cc1ccccc1,"inconclusive: 35.5 µM [inhibitor, partial curve, poor fit]",
COc1cccc(C(=O)NNC2=C(C(=O)C(F)(F)F)CCC2)c1,"inconclusive: 28.2 µM [inhibitor, partial curve, poor fit]",
COc1ccc(NC(=O)C2CCN(c3cnccn3)CC2)cc1OC,,inactive: 9.53%
COc1cc(C2c3c(oc4ccccc4c3=O)C(=O)N2c2nncs2)cc(OC)c1OC (stereo unspecified),,inconclusive: -31.2% [inhibitor]
O=C1CCc2cc(C(=O)OCC(=O)C3CCCCC3)ccc2N1,,inactive: 18.9%
O=C(N/N=C/c1ccccc1OC(F)F)NC1CCCCC1,"inconclusive: 39.8 µM [inhibitor, single point]",

Structure (SMILES),Potency,"activity change, negative = inhibition"
COCCc1nncn1C1CCN(C(=O)c2cccc(Br)c2)CC1,,inactive: 7.36%
COc1cccc(C2=CC(c3ccc(OC)c(OC)c3OC)n3ncnc3N2)c1 (stereo unspecified),"inconclusive: 35.5 µM [inhibitor, single point]",
O=C(Cc1cccc(F)c1)N1CCC2(CC1)CN(c1ncccn1)CC2CO (stereo unspecified),active: 22.4 µM,
Cc1ccc(-c2nc3ccccc3s2)cc1,"inconclusive: 39.8 µM [inhibitor, single point]",
CCN(C(=O)Cc1nc(-c2ccc(OC)cc2)no1)c1cccc(Cl)c1,,inactive: -17.5%
Cc1cccc(Oc2ccc3[nH]c(C(=O)NCc4ccco4)cc3c2)c1,"inconclusive: 35.5 µM [inhibitor, partial curve, poor fit]",
O=C(NCc1ccccc1)c1cc2ccccc2[nH]1,"inconclusive: 35.5 µM [inhibitor, single point]",
Cc1oc2ccc(O)c(CN(C)Cc3ccccc3)c2c1C(=O)Nc1cccc(C(F)(F)F)c1,,inconclusive: -37.6% [inhibitor]
CSc1cccc(NC(=O)c2ccc(F)cc2F)c1,,inactive: -13%
COC(=O)c1c(N)c(-c2nc3ccccc3s2)nn1-c1ccccc1,,inactive: -26.9%
Cc1ccccc1-c1cc(C(=O)NCc2cccnc2)c2c(c1)N(C)CCO2,active: 35.5 µM,
Cc1ccc(S(=O)(=O)c2cc3c(cc2NC(=O)COc2ccc(C)cc2C)n(C)c(=O)n3C)cc1,,inactive: -14.1%
COc1ccc(OC)c(/C=N/NC(=O)CCC(=O)Nc2cccc(Cl)c2)c1,"inconclusive: 25.1 µM [inhibitor, partial curve, poor fit]",
CCc1ccc(CNC(=O)CCSCc2ccccc2F)cc1,"inconclusive: 44.7 µM [inhibitor, single point]",
C=CCn1c(C)cc(C(=O)COC(=O)c2csc(NCc3ccccc3)n2)c1C,,inactive: -0.242%
COc1cccc(C2Cn3nnc(-c4nc(-c5ccc(SC)cc5)no4)c3CO2)c1 (stereo unspecified),"inconclusive: 14.1 µM [inhibitor, partial curve]",
CC1CCC(NC(=O)CN2CCN(c3cccc(F)c3C#N)CC2)CC1 (stereo unspecified),,inactive: 11%
O=C(N[C@H]1CO[C@H]2[C@@H]1OC[C@@H]2Nc1nccc(-c2cccs2)n1)c1ccccc1,active: 35.5 µM,
